Legend:
[1] = test system: Nrf2 target genes (xCT/SLC7A11, GCLM, NQO1); test: Expression of Nrf2 target genes/proteins in Mayo PDX explant cultures; type: cell-based, human
Nrf2 = Nrf2 luciferase reporter (ARE-NanoLuc reporter); type: cell-based; details: erlotinib-induced

C#Cc1cccc(Nc2ncnc3cc(OCCOC)c(OCCOC)cc23)c1 [Erlotinib, erlotinib]
Nrf2 target genes (xCT/SLC7A11, GCLM, NQO1) ([1]; erlotinib 1 μM, 24 h, GBM12 cells): induces
NQO1 protein ([1]; in response to erlotinib): upregulation
xCT/SLC7A11 protein ([1]; in response to erlotinib): increase
SLC7A11, NQO1, and GCLM expression ([1]; multiple PDX lines): induced
activity of an Nrf2 luciferase reporter (ARE-NanoLuc reporter) (Nrf2): increased

Reference: US20230130791A1, “A Combined Inhibition of EGFR and NRF2 in The Treatment of Malignant Glioma” (United States Government as represented by the Department …, priority 2020, published 2023)
